These results are taken from the supplement of paper PMC4604168 (melanoma cell lines).

Some of the results follow. Many values rest on one well or one pass, so single values are uncertain.
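Also: cells treated in 1,536-well plates, then fixed and DAPI-stained, with nuclei counted from automated high-throughput microscope images.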

The assay deals with SkMel5. Kind of assay: cell count relative to DMSO control; melanoma cells; higher = more viable cells. The note with it: library dose: standard library concentration; 72 h.
Consider `N#CC[C@H](C1CCCC1)n1cc(-c2ncnc3[nH]ccc23)cn1` [ruxolitinib] + c1cc(-c2cnn3cc(-c4ccc(OCCN5CCCCC5)cc4)cnc23)ccn1 [Dorsomorphin] (first compound 5 µM, partner dose 2 µM), for which the cell count worked out at 48.6%.
The figure for `Cc1cc(Nc2cc(N3CCN(C)CC3)nc(Sc3ccc(NC(=O)C4CC4)cc3)n2)n[nH]1` [Tozasertib] + C[C@@H]1CCN(C(=O)CC#N)C[C@@H]1N(C)c1ncnc2[nH]ccc12 [CP690550] (first compound 0.03 µM, partner dose 5 µM) is 75.6%; for `N#CC[C@H](C1CCCC1)n1cc(-c2ncnc3[nH]ccc23)cn1` [ruxolitinib] + O=c1[nH]nc(Sc2ncc([N+](=O)[O-])s2)n1-c1ccc2c(c1)OCCO2 [BI78D3] (first compound 5 µM, partner dose 1 µM) it is 72.5%; for `N#CC[C@H](C1CCCC1)n1cc(-c2ncnc3[nH]ccc23)cn1` [ruxolitinib] + OCCn1cc(-c2cnc3nnn(Cc4ccc5ncccc5c4)c3n2)cn1 [PF04217903] (first compound 5 µM, partner dose 5 µM) it is 87.8%.
In turn, `CC[C@]1(O)C[C@H]2CN(CCc3c([nH]c4ccccc34)[C@@](C(=O)OC)(c3cc4c(cc3OC)N(C=O)[C@H]3[C@@](O)(C(=O)OC)[C@H](OC(C)=O)[C@]5(CC)C=CCN6CC[C@]43[C@@H]65)C2)C1` [vincristine] + O=C(CCCCCCC(=O)Nc1ccccc1)NO [vorinostat] (first compound 0.0005 µM, partner dose 0.4 µM) yielded a cell count of 71.3%.
`N#CC[C@H](C1CCCC1)n1cc(-c2ncnc3[nH]ccc23)cn1` [ruxolitinib] + O=C1NC(=O)/C(=C/c2ccc(-c3ccc(F)cc3O)o2)S1 [AS252424] (first compound 5 µM, partner dose 5 µM) yielded a cell count of 91.8%.
`CC[C@]1(O)C[C@H]2CN(CCc3c([nH]c4ccccc34)[C@@](C(=O)OC)(c3cc4c(cc3OC)N(C=O)[C@H]3[C@@](O)(C(=O)OC)[C@H](OC(C)=O)[C@]5(CC)C=CCN6CC[C@]43[C@@H]65)C2)C1` [vincristine] + O=C1NC(=O)/C(=C/c2ccc(-c3ccc(F)cc3O)o2)S1 [AS252424] (first compound 0.0005 µM, partner dose 5 µM) displayed a cell count of 37.8%.
In the case of `N#CC[C@H](C1CCCC1)n1cc(-c2ncnc3[nH]ccc23)cn1` [ruxolitinib] + C[C@@H](Oc1cc(-c2cnn(C3CCNCC3)c2)cnc1N)c1c(Cl)ccc(F)c1Cl [Crizotinib] (first compound 5 µM, partner dose 1 µM), the cell count was 93.2%.
Molecule `Cc1cc(Nc2cc(N3CCN(C)CC3)nc(Sc3ccc(NC(=O)C4CC4)cc3)n2)n[nH]1` [Tozasertib] + NCC(=O)Nc1ccc(-n2nc(C(F)(F)F)cc2-c2ccc3c(ccc4ccccc43)c2)cc1 [OSU03012] (first compound 0.03 µM, partner dose 5 µM) displayed a cell count of 60.8%.
Consider `Cc1cc(Nc2cc(N3CCN(C)CC3)nc(Sc3ccc(NC(=O)C4CC4)cc3)n2)n[nH]1` [Tozasertib] + Cc1cc([N+](=O)[O-])ccc1NS(=O)(=O)c1cc(Cl)ccc1Cl [FH535] (first compound 0.03 µM, partner dose 5 µM), for which the cell count was found to be 89.5%.
In turn, `N#CC[C@H](C1CCCC1)n1cc(-c2ncnc3[nH]ccc23)cn1` [ruxolitinib] + CCN(CC)CCCCNc1ncc2cc(-c3cc(OC)cc(OC)c3)c(NC(=O)NC(C)(C)C)nc2n1 [PD173074] (first compound 5 µM, partner dose 0.5 µM) yielded a cell count of 94.3%.
In turn, `CC[C@]1(O)C[C@H]2CN(CCc3c([nH]c4ccccc34)[C@@](C(=O)OC)(c3cc4c(cc3OC)N(C=O)[C@H]3[C@@](O)(C(=O)OC)[C@H](OC(C)=O)[C@]5(CC)C=CCN6CC[C@]43[C@@H]65)C2)C1` [vincristine] + NCC(=O)Nc1ccc(-n2nc(C(F)(F)F)cc2-c2ccc3c(ccc4ccccc43)c2)cc1 [OSU03012] (first compound 0.0005 µM, partner dose 5 µM) gave a cell count of 48.1%.
Turning to `N#CC[C@H](C1CCCC1)n1cc(-c2ncnc3[nH]ccc23)cn1` [ruxolitinib] + Cc1nc(Nc2ncc(C(=O)Nc3c(C)cccc3Cl)s2)cc(N2CCN(CCO)CC2)n1 [dasatanib] (first compound 5 µM, partner dose 0.02 µM), the cell count stood at 60.6%.
`CC[C@]1(O)C[C@H]2CN(CCc3c([nH]c4ccccc34)[C@@](C(=O)OC)(c3cc4c(cc3OC)N(C=O)[C@H]3[C@@](O)(C(=O)OC)[C@H](OC(C)=O)[C@]5(CC)C=CCN6CC[C@]43[C@@H]65)C2)C1` [vincristine] + O=C(O)c1ccc(-c2c[nH]c3ncc(-c4ccccc4)cc23)cc1C1CCCC1 [GSK650394] (first compound 0.0005 µM, partner dose 0.8 µM): the cell count amounted to 89.8%.
